Among the data in the supplement of paper PMC4967469 are AUC and IC50 values, retold here.

Lines with a small IC50 respond at low doses; a limit (>, <) means that the fit lies beyond the doses tested. AUC sums up the same curve from the lowest dose to the 256-fold higher top dose; it is 1 without any effect and falls as sensitivity rises. For part of these data: Any top dose called inferred was derived from the fitted curves, not read from the paper. A value given as a limit tells only on which side of the number the result lay.

Common to all, as to experiment: Viability of human cancer cell lines after 72 h of drug (GDSC screen)
Compound in test [1]: COc1cc([C@@H]2c3cc4c(cc3[C@@H](O[C@@H]3O[C@@H]5CO[C@@H](C)O[C@H]5[C@H](O)[C@H]3O)[C@H]3COC(=O)[C@H]23)OCO4)cc(OC)c1O [Etoposide]
The settings on record: top dose 16 µM. How it is done: (§1)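 Human cancer cell lines in 384-well plates, medium with 10% serum, drug for 72 h over a 256-fold dose range (nine 2-fold or five 4-fold steps up to the top dose). Adherent lines were fixed and stained with the nucleic acid dye Syto60, suspension lines read with resazurin; signal relative to control wells, capped at 0 and 100%. One two-parameter sigmoid per drug and line, fitted in a mixed model over all curves with the slope shared within a line.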

Compound in test [2]: C=C(c1ccc(C(=O)O)cc1)c1cc2c(cc1C)C(C)(C)CCC2(C)C [Bexarotene]
As to conditions: top dose 8 µM. How it is done: as §1

Compound in test [3]: COc1cc(C(=O)NC2CCN(C)CC2)ccc1Nc1ncc2c(n1)N(C1CCCC1)C(C)CC(=O)N2C [NPK76-II-72-1]
As to conditions: top dose 10.24 µM; top dose inferred. How it is done:
as §1

Compound in test [4]: O=C(O)c1ccc(-c2c[nH]c3ncc(-c4ccccc4)cc23)cc1C1CCCC1 [GSK-650394]
The settings on record: top dose 16 µM; top dose inferred. Here is the method: as §1

Compound in test [5]: NC(=O)Nc1cc(-c2cccc(F)c2)sc1C(=O)N[C@H]1CCCNC1 [AZD7762]
The settings on record: top dose 2 µM. Here is the method:
as §1

Compound in test [6]: Cc1ccc2nc(NCCN)c3ncc(C)n3c2c1 [BMS-345541]
The settings on record: top dose 16 µM. How it is done: as §1

Compound in test [7]: Oc1nc(-c2ccc(C(F)(F)F)cc2)nc2c1CSCC2 [XAV 939]
As to conditions: top dose 5 µM; top dose inferred. Here is the method: as §1

In the case of 201T (lung adenocarcinoma, adherent), the AUC in test [1] is 0.381; in test [2], 0.933; in test [3], 0.887; in test [4] it was 0.795; in test [5] it was 0.64; in test [6], 0.86. Further, the IC50 is 433 nM in test [1]; over 8 µM in test [2]; over 10.2 µM in test [3]; 9.64 µM in test [4]; 339 nM in test [5]; over 16 µM in test [6].
On to 8505C (thyroid, adherent), for which the AUC amounted to 0.47 in test [1]; 0.877 in test [2]; 0.943 in test [3]; 0.77 in test [4]; 0.983 in test [7]; 0.647 in test [5]. Moreover, the AUC in test [6] came to 0.882. Further, the IC50 was 823 nM in test [1]; over 8 µM in test [2]; over 10.2 µM in test [3]; 6.44 µM in test [4]; over 5 µM in test [7]; 327 nM in test [5]. Also, in test [6], the IC50 is over 16 µM.
A388 (skin, adherent): the AUC in test [1] turned out to be 0.608; in test [2], 0.953; in test [3], 0.982; in test [4] it was 0.708; in test [7] it was 0.964; in test [5], 0.84. In addition, the AUC in test [6] is 0.889. For the same cell line, the IC50 in test [1] is 2070 nM; in test [2], over 8 µM; in test [3], over 10.2 µM; in test [4], 4.25 µM; in test [7], over 5 µM; in test [5], 1690 nM. In test [6], the IC50 is over 16 µM.
Turning to “ATN-1 (T-cell lymphoblastic leukaemia, suspension)”, the AUC in test [1] is 0.37; in test [2], 0.755; in test [3] it was 0.509; in test [4], 0.916; in test [7], 0.953; in test [5], 0.327. In test [6], the AUC turned out to be 0.432. For the same cell line, the IC50 in test [1] is 449 nM; in test [2], 2.55 µM; in test [3] it was 0.674 µM; in test [4], over 16 µM; in test [7], over 5 µM; in test [5] it was 42.8 nM. Also, in test [6], the IC50 was found to be 0.66 µM.
As to C-4-I (cervix, adherent), the AUC in test [1] turned out to be 0.555; in test [2], 0.898; in test [3], 0.964; in test [4], 0.7; in test [5], 0.427; in test [6], 0.895. In addition, the IC50 was 1430 nM in test [1]; over 8 µM in test [2]; over 10.2 µM in test [3]; 3.86 µM in test [4]; 77.8 nM in test [5]; over 16 µM in test [6].
Take D-247MG (glioma, adherent): the AUC was determined as 0.829 in test [1], 0.736 in test [3], 0.954 in test [7] and 0.886 in test [5]. For the same cell line, the IC50 in test [1] is 15500 nM; in test [3], 3.94 µM; in test [7], over 5 µM; in test [5] it was over 2000 nM.
For the cell line D-336MG (glioma, adherent), the AUC in test [1] stood at 0.886; in test [3], 0.845; in test [7], 0.927; in test [5], 0.68; in test [6] it was 0.852. Further, the half-maximal inhibitory concentration (IC50) in test [1] is over 16000 nM; in test [3], over 10.2 µM; in test [7] it was over 5 µM; in test [5] it was 463 nM; in test [6], over 16 µM.
In the case of “DMS-273 (small cell lung carcinoma, adherent)”, the AUC in test [1] turned out to be 0.42; in test [2], 0.87; in test [3], 0.673; in test [4], 0.852; in test [5], 0.801; in test [6], 0.855. For the same cell line, the IC50 in test [1] is 596 nM; in test [2] it was over 8 µM; in test [3], 2 µM; in test [4] it was 13.5 µM; in test [5], 1050 nM; in test [6], 13.9 µM.
For GCIY (stomach, adherent), the AUC in test [1] was 0.495; in test [2], 0.901; in test [3], 0.967; in test [4] it was 0.861; in test [5], 0.837; in test [6] it was 0.958. For the same cell line, the IC50 in test [1] was 970 nM; in test [2] it was over 8 µM; in test [3], over 10.2 µM; in test [4] it was over 16 µM; in test [5], 1590 nM; in test [6], over 16 µM.
As to GP5d (large intestine, adherent), the AUC amounted to 0.694 in test [1]; 0.884 in test [2]; 0.85 in test [3]; 0.917 in test [4]; 0.99 in test [7]; 0.91 in test [6]. Moreover, the half-inhibitory concentration (IC50) is 3260 nM in test [1]; 7.07 µM in test [2]; 6.56 µM in test [3]; over 16 µM in test [4]; over 5 µM in test [7]; over 16 µM in test [6].
